Here are results for 23 molecules from PubChem BioAssay AID1346428 (National Center for Advancing Translational Sciences (NCATS), 2018).

Structures are written as SMILES. The campaign covered roughly 48,000 compounds. About 1,200 (2.5%) were called active. Inconclusive results (about 2%) are left out.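 The calls were made as follows: active = activation of at least 60% and not above a set upper limit (about 1 call in 100 departs from these limits); inconclusive = activation of 40% to 60%, or above that upper limit; inactive = activation under 40%.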 Some of the results follow.

The target in this experiment is Probable G-protein coupled receptor 32 (Homo sapiens) (UniProt O75388). Put plainly: qHTS for Agonists of Human Resolvin D1 Receptor DRV1. Conditions: CHO-K1 GPR32 beta-arrestin PathHunter luminescence, 90 min; at 76.9 µM; stronger effect = higher value; zero percent set by DMSO-only wells. In outline: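 PathHunter enzyme-fragment complementation, CHO-K1 GPR32 stable line; 2,500 cells/well, overnight attach; cpd 90 min 37 °C 5% CO2; detection reagent 1 h RT; chemiluminescence. DMSO = EC0.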
Chain of UniProt O75388 (O75388 whole entry, looked up, the tested form may be a part): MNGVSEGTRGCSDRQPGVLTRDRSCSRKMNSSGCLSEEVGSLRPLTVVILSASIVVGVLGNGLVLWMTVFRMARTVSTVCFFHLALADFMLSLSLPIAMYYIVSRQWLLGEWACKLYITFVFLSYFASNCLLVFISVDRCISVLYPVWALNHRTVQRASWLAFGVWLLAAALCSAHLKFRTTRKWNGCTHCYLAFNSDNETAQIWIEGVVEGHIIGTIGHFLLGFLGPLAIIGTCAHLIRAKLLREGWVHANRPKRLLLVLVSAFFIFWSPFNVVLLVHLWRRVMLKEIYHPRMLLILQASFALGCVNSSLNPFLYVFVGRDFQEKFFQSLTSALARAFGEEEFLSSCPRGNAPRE
With `COc1ccc(CNc2ncnc3c2c(-c2ccccc2)cn3-c2ccccc2)cc1`, the activation is inactive: -11.6%.

As to `CCOC(=O)c1ccc(NC(=O)Cc2ccc(-n3c(CC)nc4cccnc43)cc2)cc1`, the activation is inactive: -9.4%.

Turning to `O=C(CC(c1ccccc1)c1cc(Br)ccc1O)NCC1(c2ccccc2)CCCC1` (stereo not drawn), the activation was active: 108%.

Consider `COc1ccc(CNC(=O)CCCc2cn(C)c3ccccc23)c(OC)c1`, for which the activation was inactive: -21.4%.

Consider `Oc1ccc(Cl)cc1Nc1nc2ccccc2n2cnnc12`, for which the activation was inactive: -6.62%.

For `COc1ccccc1N(Cc1cc2cccc(C)c2[nH]c1=O)C(=O)c1cccc(Cl)c1`, the activation is inactive: 1.41%.

Take `COc1ccc(NC(=O)Cn2nnc(C(=O)NCc3ccccc3Cl)c2N)cc1Cl`: the activation was inactive: 10.6%.

As to `COc1ccc(CCn2c3c(c(=O)[nH]c2=O)C(NC(=O)c2ccccc2)(C(F)(F)F)C(=O)N3)cc1OC` (stereo not drawn), the activation is inactive: 3.33%.

As to `O=C(CCS(=O)(=O)c1ccc2c(c1)NC(=O)CO2)Nc1cccc(C(F)(F)F)c1`, the activation was inactive: 13.3%.

As to `CCNC(=O)CC1C(=O)N(c2ccc(C)cc2)C(=O)N1Cc1ccc(C)cc1` (stereo not drawn), the activation is inactive: 8.52%.

For the molecule `NC(=O)c1cc(S(=O)(=O)N2CCCCC2)cs1`, the activation is inactive: -6.31%.

As for `CCn1cc(S(=O)(=O)c2cc(C)cc(C)c2)c(=O)c2cc(F)c(N3CCC(C)CC3)cc21`, the activation is inactive: -13%.

`Cc1ccc2nc(-c3ccc(C)c(NC(=O)CSc4ccc(Cl)cc4)c3)oc2c1`: the activation was inactive: 0.42%.

Consider `COCc1nc2c([nH]1)c(=O)n(C)c(=O)n2CC(C)C`, for which the activation was inactive: -0.149%.

`CCOc1ccc(N(C(=O)c2ccc(C)cc2)S(=O)(=O)c2ccc3c(c2)n(C)c(=O)n3C)cc1`: the activation is inactive: -1.56%.

For the molecule `Cc1ccc(Cl)cc1N1CCN(C(=O)Cn2cnc3nc4c(cc3c2=O)CCCC4)CC1`, the activation is inactive: -4.2%.

As for `Cc1ccc(C)n1-c1nnc(N2CCCC(C(=O)NCc3ccc(F)cc3)C2)s1` (stereo not drawn), the activation is inactive: 15.4%.

As for `O=C(NCc1ccc(Cl)cc1)c1cc2ccccc2o1`, the activation was inactive: -14.5%.

In the case of `Cc1ccc2cccc(NC(=O)c3ccc(-c4cc(Cl)ccc4Cl)o3)c2n1`, the activation was inactive: -5.14%.

As for `O=C(NCc1cccc(Br)c1)c1cccn1-c1nnc(N2CCCCC2)s1`, the activation is inactive: 1.25%.

In the case of `CCN(CC)C(=O)Cn1c(=O)n(CCCCCC(=O)NCc2ccccc2Cl)c(=O)c2sccc21`, the activation was inactive: -11.5%.

As for `COc1ccc(OC)c(NC(=O)c2ccc3c(c2)c(C)c(C)n3Cc2ccc(F)cc2)c1`, the activation is inactive: -17.1%.

On to `Cc1ccc(CCNc2nc3c(S(=O)(=O)c4ccc(C)cc4)nnn3c3ccsc23)cc1`, for which the activation is inactive: -12%.
